# About 800 (1.6%) of roughly 50,000 compounds showed an effect of 50% or more. This is one part of the list.
# Target: Bcl-2-like protein 10 (Homo sapiens) (UniProt Q9HD36)
# Assay: Phenotype converters, Bcl-B/TR3 peptide binding displacement, primary biochemical FP (AID 1240);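 also: 0% = Bcl-B with tracer peptide and DMSO and 100% = tracer peptide lacking Bcl-B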
# Settings: GST-Bcl-B / FITC-TR3 peptide fluorescence polarization; stronger effect = higher value; compound at 3.75 mg/L
# UniProt Q9HD36, sequence (Q9HD36 whole entry, looked up): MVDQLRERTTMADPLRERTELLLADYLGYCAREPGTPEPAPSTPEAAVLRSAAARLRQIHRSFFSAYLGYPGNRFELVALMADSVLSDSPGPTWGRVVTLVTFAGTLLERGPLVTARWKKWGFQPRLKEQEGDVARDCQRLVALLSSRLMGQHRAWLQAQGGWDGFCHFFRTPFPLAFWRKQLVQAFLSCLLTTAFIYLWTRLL
row,SMILES,displacement
1,CCc1c(C)nc2c(Cl)cccc2c1SCC(=O)O,-5.6%
2,Cc1ccc(N(CC(=O)NC(C)c2ccccc2)S(=O)(=O)c2ccc(F)cc2)cc1 (centres undefined),-2.8%
3,C=CCc1cccc2cc(C(=O)Nc3ccc(CC)cc3)c(=O)oc12,8.6%
4,CCN(CC)c1ccc(NS(=O)(=O)c2ccc(NC(C)=O)cc2)cc1,41%
5,O=C1N=c2ccc(Cl)cc2=C1c1sc(=O)[nH]c1O,0.8%
6,CC1(C)CC2(CCO1)NN=C(c1ccccc1)S2 (centres undefined),-0.7%
7,COc1ccc(C2=Nc3ccccc3NC(C)(c3ccc(OC)cc3OC)C2)c(OC)c1 (centres undefined),3%
8,COCCNC(=O)CN(c1cccc(OC)c1)S(=O)(=O)c1ccccc1,-5.1%
9,Cc1ccc(NC(=O)COc2ccccc2)cc1[N+](=O)[O-],6.5%
10,CCN(CC)c1ccc(C2Nc3ccccc3NC3=C2C(=O)CC(c2ccc(OC)cc2)C3)cc1 (centres undefined),3.5%
11,COc1ccc(-c2[nH]ncc2/C=N\NC(=O)c2ccccc2I)cc1,-8.4%
12,CC(=O)NC(NC(C)=O)c1ccc(N(C)C)cc1,8.3%
13,CCOc1ccc2ccccc2c1C=C1C(=O)NC(=S)NC1=O,14.5%
14,CN1C(=O)/C(=C\c2ccc(-c3ccc(F)c(Cl)c3)o2)SC1=S,3.9%
15,COc1cc2c(cc1OC)S(=O)(=O)OC(C)=C2,-0.5%
16,COc1cc(NC(=O)c2ccc(Cl)c([N+](=O)[O-])c2)c(OC)cc1Cl,-6.1%
17,COc1ccc(OC)c(CN2CCN(S(=O)(=O)c3ccc(C)cc3)CC2)c1,-4.6%
18,O=C1NC(=O)N(c2ccc(Cl)cc2)C(=O)/C1=C/c1ccc(N2CCCCC2)o1,-88.2%
19,N#C/C(=C\c1c[nH]c2ccccc12)c1ccc([N+](=O)[O-])cc1,18.7%
20,NS(=O)(=O)c1ccc(Oc2ccc([N+](=O)[O-])cc2)cc1,-15.5%
21,CC(=O)c1c(C)oc2c1cc(O)c1c2c(-c2ccccc2)nn1-c1ccccc1,-7.5%
22,CCOc1cccc(-c2nnc(NC(=O)c3ccco3)s2)c1,14.6%
23,C#CCSc1nc2ccccc2n1C(=O)/C=C/c1ccco1,-10.8%

row,SMILES,displacement
1,CCCN1CCC(=NNC(=O)c2c[nH]c3ccccc23)CC1,-17%
2,O=C(CSc1nnc(-c2ccncc2)n1-c1ccccc1)c1ccc(F)cc1,-2.7%
3,O=C(CSCc1ccccc1)Nc1nccs1,-2.5%
4,Cc1ccc(C(=O)N/C(=C\c2ccc(-c3cc(Cl)ccc3Cl)o2)C(=O)NCc2cccnc2)cc1,3.5%
5,COc1ccccc1/C=N/NC(=O)CSc1ccccn1,-2.1%
6,CC(=O)Nc1ccc(NC(=S)NC(NC(=O)c2ccc(C)cc2)C(Cl)(Cl)Cl)cc1 (centres undefined),7.6%
7,c1ccc(Cn2c(COc3ccccc3)nc3ccccc32)cc1,-1%
8,Cc1ccc(NC(=O)Cc2nnc(NC(=O)Nc3ccc(Cl)cc3)s2)cc1,4%
9,CC(C)C(C(=O)O)N1C(=O)/C(=C/c2ccc(C(=O)O)cc2)SC1=S (centres undefined),-9.9%
10,COC(=O)c1c(NC(=O)/C=C/c2cccc([N+](=O)[O-])c2)sc2c1CCCC2,5.4%
11,COc1ccc(C(=O)/C=C/Nc2ccccc2Br)cc1OC,13.6%
12,O=C(CSc1nc2ccccc2o1)NC1CCCC1,-14%
13,Cn1cnnc1Sc1cc(N2CCCC2)ccc1[N+](=O)[O-],8.5%
14,COc1ccccc1OCC(=O)NCc1ccc2c(c1)OCO2,1.4%
15,O=C1NC(=Nc2ccccc2)S/C1=C/c1cccc(OC(=O)c2ccccc2)c1,7.5%
16,CC1(C)CC(=O)C(C(C2=C(O)CC(C)(C)CC2=O)c2ccccc2OCc2ccccc2)C(=O)C1 (centres undefined),-9.7%
17,COc1ccc(C(=O)NCC(C)c2ccccc2)cc1OC (centres undefined),11.9%
18,COc1ccc(CC2S/C(=N\N=C\CCc3ccc(C)o3)NC2=O)cc1 (centres undefined),-9.6%
19,CC(C)(C)NC(=O)c1cccc(NC(=O)c2cccs2)c1,-3.6%
20,COC(=O)c1c(NC(=O)c2cccc(Br)c2)sc(C)c1C,10.6%
21,C/C(=C\c1ccccc1Cl)C(=O)c1c(C)cc(C)[nH]c1=O,42%
22,CCN1C(=O)/C(=C\c2cc(Br)ccc2OCCOc2cccc(OC)c2)SC1=S,-58.2%
23,O=C1CCCc2c1n(CC(O)CO)c1ccccc21 (centres undefined),-2.7%

row,SMILES,displacement
1,O=C1C(=O)N(c2nccs2)C(c2cccc(Br)c2)/C1=C(\O)c1ccc(Cl)cc1 (centres undefined),11.3%
2,COc1cc(NC(=O)COc2ccc(Br)c(C)c2)c(OC)cc1Cl,-3.5%
3,CC(=O)Oc1ccc2oc(C)c(C(=O)O)c2c1,3.5%
4,Cn1c(=O)c2c(ncn2CC(=O)Nc2nc(-c3ccccc3)cs2)n(C)c1=O,11.2%
5,Cc1ccccc1S(=O)(=O)Nc1c(C)n(C)n(-c2ccccc2)c1=O,-0.9%
6,O=C(Nc1cc(C(F)(F)F)ccc1Cl)c1ccc2ccccc2n1,11.2%
7,COc1ccc(C2/C(=C(/O)c3ccccc3)C(=O)C(=O)N2c2cccc(C)c2)c(OC)c1 (centres undefined),-1.4%
8,CC1CCN(C(=O)CSc2nc3ccccc3[nH]2)CC1,1%
9,CC(C)(C)c1ccc(-c2nc(-c3cccc([N+](=O)[O-])c3)no2)cc1,-9.6%
10,COc1ccc(C2CC(C(F)(F)F)n3nc(C(=O)NCCc4ccccc4)c(Cl)c3N2)cc1OC (centres undefined),1.1%
11,CN(C)c1cccc(C(=O)Nc2ccc(Br)cc2F)c1,-7%
12,COc1cc(/C=N/NC(=S)Cc2ccccc2)cc(OC)c1OC,-0.4%
13,COc1cc(CN2CCN(Cc3cccc(F)c3)CC2)cc2c1OCO2,-33.3%
14,COc1ccc(CNCc2ccc3ccccc3c2)cc1OC,-1%
15,CC(NC(=O)CN(c1cccc(Cl)c1)S(C)(=O)=O)c1ccccc1 (centres undefined),2.3%
16,CC(c1ccco1)N(C(=O)COc1ccc(Cl)cc1Cl)c1ccccn1 (centres undefined),0.4%
17,CCOc1ccc(NC(=O)CN(CCc2ccccc2)S(=O)(=O)c2ccccc2)cc1,-1.1%
18,O=C1Nc2ccccc2/C1=N\N=C\c1ccccc1[N+](=O)[O-],-5%
19,COc1cc(C(=O)N2CCN(C3C4CC5CC(C4)CC3C5)CC2)cc(OC)c1OC (centres undefined),-5.1%
20,COc1ccccc1NC(=O)C1=C(C)NC2=C(C(=O)CCC2)C1c1ccc(Cl)cc1 (centres undefined),2.4%
21,CS(=O)(=O)N(Cc1ccccc1)c1ccc(C(=O)N2CCOCC2)cc1,0.1%
22,COc1ccc(OC)c(NC(=O)Cc2ccccc2OC)c1,5.8%
23,COc1ccc(-c2cc(-c3ccccc3)[o+]c(-c3ccccc3)c2)cc1,24%

# Reference: PubChem BioAssay AID1240 (Sanford-Burnham Center for Chemical Genomics, 2008)
